The whole screen tested about 310,000 compounds, of which about 14,000 (4.5%) showed an effect of 50% or more. The effect is printed as a negative number. Some of the results follow.
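Note: peak tail current of the secondary pulse compared with the same well before compound.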

In the test the target is human ether-à-go-go-related gene (hERG) potassium channel (human, UniProt Q12809). Description: primary screen, population patch clamp on CHO cells stably expressing hERG.
Sequence of human ether-à-go-go-related gene (hERG) potassium channel (Q12809 whole entry, looked up): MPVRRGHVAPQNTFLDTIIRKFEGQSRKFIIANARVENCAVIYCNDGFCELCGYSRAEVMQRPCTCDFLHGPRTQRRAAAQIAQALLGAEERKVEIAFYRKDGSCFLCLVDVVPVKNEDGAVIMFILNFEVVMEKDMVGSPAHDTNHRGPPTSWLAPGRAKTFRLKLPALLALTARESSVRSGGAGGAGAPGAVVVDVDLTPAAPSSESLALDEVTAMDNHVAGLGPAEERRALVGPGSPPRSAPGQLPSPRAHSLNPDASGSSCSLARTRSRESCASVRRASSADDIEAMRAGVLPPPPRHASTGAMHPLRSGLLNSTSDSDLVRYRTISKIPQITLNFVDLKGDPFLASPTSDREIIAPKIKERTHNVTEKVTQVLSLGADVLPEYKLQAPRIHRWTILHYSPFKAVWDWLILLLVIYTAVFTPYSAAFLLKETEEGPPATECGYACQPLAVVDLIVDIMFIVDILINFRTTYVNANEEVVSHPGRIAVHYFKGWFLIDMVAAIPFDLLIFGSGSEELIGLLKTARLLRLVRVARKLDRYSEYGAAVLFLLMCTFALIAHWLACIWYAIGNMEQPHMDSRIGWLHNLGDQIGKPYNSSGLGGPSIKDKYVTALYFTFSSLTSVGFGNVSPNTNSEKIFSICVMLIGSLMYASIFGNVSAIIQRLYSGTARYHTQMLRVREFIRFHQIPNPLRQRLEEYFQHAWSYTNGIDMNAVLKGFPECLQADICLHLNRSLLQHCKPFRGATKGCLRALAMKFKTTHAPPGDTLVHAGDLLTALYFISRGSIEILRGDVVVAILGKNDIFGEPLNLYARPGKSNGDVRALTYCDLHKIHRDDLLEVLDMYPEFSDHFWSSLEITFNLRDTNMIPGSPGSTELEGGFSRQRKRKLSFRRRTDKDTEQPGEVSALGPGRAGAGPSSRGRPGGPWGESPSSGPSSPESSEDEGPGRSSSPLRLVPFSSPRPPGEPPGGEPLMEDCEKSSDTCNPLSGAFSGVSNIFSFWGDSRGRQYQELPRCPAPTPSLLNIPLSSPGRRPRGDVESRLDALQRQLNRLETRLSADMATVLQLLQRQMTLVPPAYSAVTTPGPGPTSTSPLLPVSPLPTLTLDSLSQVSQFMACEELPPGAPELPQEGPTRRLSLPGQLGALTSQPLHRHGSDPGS
For the compound `CC(=O)NC(Cc1ccc(F)cc1)C(=O)N1CCN(C(=O)NCc2ccccc2)CC1` (stereo not shown), the “hERG current change (%, negative = inhibition) at 10uM” value was -5.22%.

As for `COc1c(Cl)cccc1-c1cn2ccccc2n1`, the “hERG current change (%, negative = inhibition) at 10uM” value turned out to be 1.82%.

Consider `Cc1ccc(Cl)cc1N1CCN(CCN)CC1`, for which the “hERG current change (%, negative = inhibition) at 10uM” value is -0.374%.

As for `CC1=CC(=NOC(=O)/C=C/c2ccccc2)C=C(C)C1=O`, the “hERG current change (%, negative = inhibition) at 10uM” value was 16.3%.

As to `COC(=O)Cn1ccc(-c2ccc(Cl)cc2)c(C#N)c1=O`, the “hERG current change (%, negative = inhibition) at 10uM” value was -16.3%.

In the case of `COc1ccc(-c2sc(Nc3ccccc3)n[n+]2-c2ccc(F)cc2)cc1Br.[Cl-]`, the “hERG current change (%, negative = inhibition) at 10uM” value amounted to 4.03%.

In the case of `CCCOC(=O)/C(C(N)=NCc1ccccc1)=C(\O)OCCC`, the “hERG current change (%, negative = inhibition) at 10uM” value is -7.96%.

For `CC(C)(/C=N/O)/[N+]([O-])=C/c1ccccc1`, the “hERG current change (%, negative = inhibition) at 10uM” value amounted to 20.1%.

With `O=C(O)CCCC(=O)Nc1ccn(-c2ccccc2)n1`, the “hERG current change (%, negative = inhibition) at 10uM” value was -0.862%.

On to `COC(=O)c1ccccc1N/C=C1\CCc2c(c(C)nn2-c2ccccn2)C1=O`, for which the “hERG current change (%, negative = inhibition) at 10uM” value is 3.14%.

Consider `CN(C)c1nc(N(C)C)nc(N2CCCCC2)n1`, for which the “hERG current change (%, negative = inhibition) at 10uM” value is reported as -8.37%.

Take `O=C(NCC1CC1)c1ccc(Nc2nc3ccc(Br)cc3[nH]2)cc1`: the “hERG current change (%, negative = inhibition) at 10uM” value is -0.782%.

Take `CC(C)CN(C(=O)COC(=O)CCSc1ccc(F)cc1)c1c(N)n(Cc2ccccc2)c(=O)[nH]c1=O`: the “hERG current change (%, negative = inhibition) at 10uM” value was found to be 10.1%.

Consider `COc1ccc(S(=O)(=O)N2CCC(C(=O)Nc3ccc(S(=O)(=O)N4CCCC4)cc3)CC2)cc1OC`, for which the “hERG current change (%, negative = inhibition) at 10uM” value was 8.38%.

As to `O=C(CSc1nnc(CNc2cccc(Cl)c2)o1)OC1CCCCC1`, the “hERG current change (%, negative = inhibition) at 10uM” value is listed as -3.59%.

On to `CCCCSC(=S)N(C)C1CCS(=O)(=O)C1` (stereo not shown), for which the “hERG current change (%, negative = inhibition) at 10uM” value was 2.89%.

Turning to `CCOC(=O)c1oc2ccccc2c1NC(=O)c1ccco1`, the “hERG current change (%, negative = inhibition) at 10uM” value worked out at 4.4%.

As to `Cc1ccc(C2C(C#N)=C(N)OC3=C2C(=O)CC(C)(C)C3)s1` (stereo not shown), the “hERG current change (%, negative = inhibition) at 10uM” value was -4.59%.

Regarding `COc1ccc(CNC(=O)Cn2ccc3cc(S(=O)(=O)N4CCCC4)ccc32)cc1OC`, the “hERG current change (%, negative = inhibition) at 10uM” value is -4.61%.

Regarding `COc1cccc(-c2nc(C(=O)NCC3CCCO3)cc3c2[nH]c2ccccc23)c1` (stereo not shown), the “hERG current change (%, negative = inhibition) at 10uM” value is -26.4%.

With `Cc1ccc(S(=O)(=O)NC(C)(C)CSc2ccccn2)cc1`, the “hERG current change (%, negative = inhibition) at 10uM” value is on record as -14.3%.

Take `O=C1CC2(CCCC2)Oc2ccccc21`: the “hERG current change (%, negative = inhibition) at 10uM” value is listed as 3.39%.

For `CCOC(=O)c1[nH]c2ccccc2c1NC(=O)c1ccc(S(=O)(=O)N2CCCCC2)cc1`, the “hERG current change (%, negative = inhibition) at 10uM” value was 3.48%.

Regarding `COc1ccc(-c2cc(C(=O)NC3CCCCC3)no2)cc1OC`, the “hERG current change (%, negative = inhibition) at 10uM” value is 14.1%.

Regarding `O=C(Nc1ccc(F)cc1)c1cccc(N2C(=O)c3ccccc3C2=O)c1`, the “hERG current change (%, negative = inhibition) at 10uM” value turned out to be 5.7%.

The values above are taken from paper PMC4336329 (PLoS ONE, 2015).
